Assay results taken from PubChem BioAssay AID624296 (National Center for Advancing Translational Sciences (NCATS), 2012).
The campaign covered roughly 350,000 compounds. About 9,900 (2.8%) were called active. The inconclusive results got no clear call from the source; some entries with a clear call stand among them for comparison. Calls follow the shape of the dose curve; as a rule, active = well fitted activation curve with a large enough effect; inconclusive = small, poorly fitted or top-dose-only effect; inactive = no such curve, though single readings can be large or run the other way. Potencies of inconclusive entries are left out as doubtful fits.

Test: A quantitative high throughput screen for small molecules that induce DNA re-replication in MCF 10a normal breast cells. Also: nearly all actives have a fitted effect of over 50% in size. As to activity, positive = re-replication: % of control where 0% means no effect.
Details: MCF 10A DNA re-replication, Hoechst nuclear intensity, 48 h; activity, positive = re-replication: at 46.1 µM (top of the series)
Potency is read from the fitted curve at half-maximal effect; tags tell the direction and shape of the fitted curve.

Compound	Potency	activity, positive = re-replication
CCN(Cc1nc2ccccc2c(=O)[nH]1)C(=O)c1cc(C2CC2)nn1-c1ccccc1	inconclusive [activator, single point]	
O=C(CSc1ncnc2c1oc1ccccc12)Nc1cccc(C(F)(F)F)c1	inconclusive [activator, single point]	
Cn1c(=O)c2[nH]c(NN=Cc3cccc(Br)c3)nc2n(C)c1=O	inconclusive [activator, single point]	
Cc1nc2c(nc1C)C(=O)c1ccccc1C2=O	active: 5.8 µM	
NC(=O)CC(NC(=O)c1ccccc1)c1ccc(NCCN2CCCCC2)c([N+](=O)[O-])c1 (stereo unspecified)		inactive: -1.55%
CC(C)=CC(=O)O[C@@H]1Cc2c(ccc3ccc(=O)oc23)OC1(C)C	inconclusive [activator, partial curve, poor fit]	
COc1cc(/C=N/NC(N)=S)cc(Br)c1OCc1ccccc1F	inconclusive [activator, partial curve]	
COc1ccccc1C(=O)OCCN1CCOCC1	inconclusive [activator, single point]	
COc1ccc2sc(-c3ccc(SC)cc3)c(C#CCO)c2c1	inconclusive [activator, single point]	
O=C(CSc1nc2ccc(Nc3nc(N4CCCC4)nc(N4CCCC4)n3)cc2s1)NCc1ccco1	active: 5.8 µM	
Cc1nc(SCC(=O)c2cccs2)c2oc3ccccc3c2n1	inconclusive [activator, partial curve, poor fit]	
CN(c1ccc(C(=O)Nc2ccc(CC#N)cc2)cc1)S(C)(=O)=O	inconclusive [activator, single point]	
CCOC(=O)C1CCN(C(=O)C2CCCN(S(=O)(=O)c3ccc(OC)c(Cl)c3)C2)CC1 (stereo unspecified)	inconclusive [activator, partial curve, poor fit]	
CS(=O)(=O)c1sc(C(=O)NC(=S)Nc2ccc(OC(F)(F)F)cc2)c2c1C=CCC2	inconclusive [activator, single point]	
CCOC(=O)C1=C(C)N=c2s/c(=C\c3ccc(OCC(=O)O)cc3)c(=O)n2C1c1ccc(Cl)cc1 (stereo unspecified)	active: 18.4 µM	
O=C(Nc1ccc(N=Nc2ccccc2)c(NC(=O)C2CCCO2)c1)C1CCCO1 (stereo unspecified)	inconclusive [activator, partial curve, poor fit]	
Cc1nc2cc(NS(=O)(=O)c3ccccc3)ccc2n1C		inactive: 0.842%
COc1ccc(CN2CCC(CNS(=O)(=O)c3cccc(C(F)(F)F)c3)CC2)cc1	inconclusive [activator, single point]	
COC(=O)c1cc(=O)n(-c2ccc(C(F)(F)F)cc2)[nH]1	inconclusive [activator, partial curve, poor fit]	
Cc1nn(-c2ccccc2)c(N2CCCC2)c1/C=N/NC(=S)Nc1cc(C(F)(F)F)ccc1Cl	inconclusive [activator, partial curve, poor fit]	
Cc1ccc(N(Cc2ccccc2)C(=O)c2ccc(S(=O)(=O)N3CCOCC3)cc2)cc1		inactive: 10.6%

Compound	Potency	activity, positive = re-replication
CCn1c(SCC(=O)Nc2c(C)n(C)n(-c3ccccc3)c2=O)nc2c1c(=O)n(C)c(=O)n2C	inconclusive [activator, single point]	
Cc1c(OC(C)C(=O)NC(Cc2c[nH]c3ccc(O)cc23)C(=O)O)ccc2c1oc(=O)c1ccccc12 (stereo unspecified)		inactive: -1.41%
CC(c1ccccc1)n1c(CCCO)nc2ccccc21 (stereo unspecified)		inactive: 10%
O=C1C(Cc2ccccc2)NC(=S)N1Cc1ccccc1 (stereo unspecified)		inactive: 6.77%
CN(CCc1ccccc1)C(=O)c1ccc(NC(=O)Cc2ccc(NC(=O)C3CCCN(C(=O)C4CCCCC4)C3)cc2)cc1 (stereo unspecified)	inconclusive [activator, single point]	
COC(=O)c1ccc(OC)c(CSc2nnc(-c3ccc(C(C)(C)C)cc3)o2)c1	inconclusive [activator, partial curve]	
Cc1cc(C)nc(/N=C(/NC(=O)c2ccccc2)Nc2ccccc2)n1	inconclusive [activator, partial curve, poor fit]	
Cc1cccc2sc(N3CCN(C(=O)C4COc5ccccc5O4)CC3)nc12 (stereo unspecified)	inconclusive [activator, partial curve, poor fit]	
COc1ccc(OCc2cc(C(=O)N3CCCC(OC)C3)no2)c2ccccc12 (stereo unspecified)	inconclusive [activator, single point]	
O=C(NC(=S)N1CCCCCC1)C1CC1		inactive: 2.91%
COc1ccc(S(=O)(=O)N(C)CC(=O)N2CCCCCC2)cc1	inconclusive [activator, single point]	
O=C(CSc1ccccc1)Nc1ccccc1N1CCOCC1	inconclusive [activator, full curve, poor fit]	
O=C(OCC(=O)N1CCCC1)c1cc(=O)c2ccccc2o1	inconclusive [activator, full curve, poor fit]	
CCOc1ncccc1C(=O)N(CCC(C)C)c1c(N)n(Cc2ccccc2)c(=O)[nH]c1=O	inconclusive [activator, single point]	
OCCCc1cn(Cc2ccccc2)c2ccccc12	inconclusive [activator, full curve, poor fit]	
O=C(N/N=C/c1ccccc1O)C1CC(=O)N(c2ccc(Cl)cc2)C1 (stereo unspecified)	inconclusive [activator, single point]	
O=C(NNC(=O)C1CC(c2cccs2)=NO1)NC1CCCCC1 (stereo unspecified)		inactive: 0.194%
CCN(Cc1ccccc1)S(=O)(=O)c1cc(C(=O)NC(C)C2CC3CCC2C3)ccc1OC (stereo unspecified)	inconclusive [activator, single point]	
O=C1CCCc2[nH]c3cccc(/C(=C/c4ccccc4)c4ccccc4)c3c21	inconclusive [activator, single point]	
CN=c1scc(-c2ccccc2F)n1/N=C/c1ccc[nH]1	inconclusive [activator, single point]	
